A compilation of properties of binary mixtures (doi:10.1007/s10953-022-01241-4)
The densities may have been worked out from excess volumes.

Experiment: xn = mol fraction of the nth substance listed
Conditions: 100 kPa

## C[P+](c1ccccc1)(c1ccccc1)c1ccccc1.[Br-] + OCCO
293.15 K, x1 = 0.1
  mass density: 1185 kg/m3
293.15 K, x1 = 0.13
  mass density: 1196 kg/m3
293.15 K, x1 = 0.17
  mass density: 1212 kg/m3
293.15 K, x1 = 0.2
  mass density: 1223 kg/m3
293.15 K, x1 = 0.25
  mass density: 1236 kg/m3
293.15 K, x1 = 0.33
  mass density: 1247 kg/m3
298.15 K, x1 = 0.13
  mass density: 1193 kg/m3
298.15 K, x1 = 0.17
  mass density: 1208 kg/m3
298.15 K, x1 = 0.2
  mass density: 1219 kg/m3
298.15 K, x1 = 0.25
  mass density: 1232 kg/m3
298.15 K, x1 = 0.33
  mass density: 1244 kg/m3
303.15 K, x1 = 0.1
  mass density: 1178 kg/m3
303.15 K, x1 = 0.13
  mass density: 1189 kg/m3
303.15 K, x1 = 0.17
  mass density: 1204 kg/m3
303.15 K, x1 = 0.2
  mass density: 1215 kg/m3
303.15 K, x1 = 0.25
  mass density: 1228 kg/m3
308.15 K, x1 = 0.1
  mass density: 1174 kg/m3
308.15 K, x1 = 0.13
  mass density: 1186 kg/m3
308.15 K, x1 = 0.17
  mass density: 1201 kg/m3
308.15 K, x1 = 0.2
  mass density: 1212 kg/m3
308.15 K, x1 = 0.25
  mass density: 1225 kg/m3
308.15 K, x1 = 0.33
  mass density: 1237 kg/m3
313.15 K, x1 = 0.13
  mass density: 1182 kg/m3
313.15 K, x1 = 0.17
  mass density: 1197 kg/m3
313.15 K, x1 = 0.2
  mass density: 1208 kg/m3
313.15 K, x1 = 0.25
  mass density: 1221 kg/m3
318.15 K, x1 = 0.1
  mass density: 1167 kg/m3
318.15 K, x1 = 0.13
  mass density: 1178 kg/m3
318.15 K, x1 = 0.17
  mass density: 1194 kg/m3
318.15 K, x1 = 0.2
  mass density: 1205 kg/m3
318.15 K, x1 = 0.33
  mass density: 1230 kg/m3
323.15 K, x1 = 0.1
  mass density: 1163 kg/m3
323.15 K, x1 = 0.13
  mass density: 1174 kg/m3
323.15 K, x1 = 0.17
  mass density: 1190 kg/m3
323.15 K, x1 = 0.2
  mass density: 1201 kg/m3
323.15 K, x1 = 0.25
  mass density: 1214 kg/m3
323.15 K, x1 = 0.33
  mass density: 1226 kg/m3
